Data on one molecule can be found in US20240336682A1 (SHENGHE CHINA BIOPHARMACEUTICAL, published 2024).

The test addresses T1, TGFβ1 (UniProt P01137 fragment, limits assumed).
T1 construct: also called TGFβ1 protein
Put plainly: ELISA, TGFb1 coated at 1 ug/mL, HRP goat anti-human IgG-Fc. The method, then:
TGFβ1 was diluted to 1 μg/mL with PBS buffer at pH 7.4, added into the 96-well ELISA plate at 100 μL per well, coated overnight at 4° C., and blocked with 1% BSA blocking solution for 1 hour. The plate was washed 3 times with PBST, and the constructed expressing antibodies were diluted to 20 µg/mL with 0.5% BSA sample diluent as the starting concentration, and then diluted by 3-fold gradient (11 gradients in total). A negative control (blank well and IgG1 isotype control) and a positive control were set, and the positive control was TGF-βR2 (Acro, Cat: TG2-H5252), and incubated at 37° C. for 1 h at 100 μL per well. The plate was washed 3 times with PBST, and then HRP-labelled goat anti-human IgG-Fc was diluted with the sample diluent at 1:10000. 100 μL was added into each well, and incubated at room temperature for 1 hour. The plate was washed 4 times with PBST, and 100 μL of TMB substrate was added into each well, and incubated at room temperature without light for 10 minutes. 100 μL of 1 M HCl solution was added into each well to terminate the color development reaction. The absorbance value of each well in the 96-well plate was determined by selecting the wavelength of 450 nm and the reference wavelength of 570 nm on a multifunctional enzyme marker, and the absorbance value (OD)=OD₄₅₀ₙₘ−OD₅₇₀ₙₘ. The logarithm of the concentration of the constructed antibodies were taken as the abscissa, and the measured absorbance value of each well was taken as the ordinate, and the Sigmoidaldose-response (Variable Slope) method (GraphPad Prism software, GraphPad Software, San Diego, California) was selected for nonlinear regression to obtain the binding curve of the target antibodies to the TGFβ1 protein.
On the technique in general: In an ELISA, binding on a coated surface is turned into a signal by an enzyme label.

Chain of TGFβ1 (P01137 279-390 limits assumed): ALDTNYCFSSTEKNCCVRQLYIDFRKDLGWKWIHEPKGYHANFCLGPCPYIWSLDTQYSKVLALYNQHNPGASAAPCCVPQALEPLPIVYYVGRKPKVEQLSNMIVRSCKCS

B1: CNT-F (other)
light 1: EVQLVESGGGLVKPGGSLKLSCTASGFTFSSYVMSWVRQTPEKRLEWVATINDGGSYTYYPDNLKGRFTISRDNAKNNLYLQMSHLRSEDTARYYCSVLRRGNAMDYWGQGTSVTVSSRTVAAPSVFIFPPSDEQLKSGTASVVCLLNNFYPREAKVQWKVDNALQSGNSQESVTEQDSKDSTYSLSSTLTLSKADYEKHKVYACEVTHQGLSSPVTKSFNRGECGGGGSGGGGSGGGGSGGGGSEVQLVESGGGLVQPGGSLRLSCAASGITFSRSVMGWFRQAPGKLRELVAGITSDDNTDYADSVKGRFTISRDNSKNTLYLQMNSLRAEDTAVYYCNILPDSRLGWGQGTLVTVSS
heavy 1: DIVMTQSPSSLTATARERVTMSCKSSQSLLNSGNQKNYLTWYQQKPGQPPKLLIYWASTRESGVPDRFTGSGSGTDFTLTVSSVQAEDLAVYYCQNAYFYPFTFGSGTKLEIK[human IgG1 constant region with changes not spelt out]GGSGGGGSGGGGSGGGGSGIPPHVQKSVNNDMIVTDNNGAVKFPQLCKFCDVRFSTCDNQKSCMSNCSITSICEKPQEVCVAVWRKNDENITLETVCHDPKLPYHDFILEDAASPKCIMKEKKKPGETFFMCSCSSDECNDNIIFSEEYNTSNPD
heavy 2: EVQLVESGGGLVKPGGSLKLSCTASGFTFSSYVMSWVRQTPEKRLEWVATINDGGSYTYYPDNLKGRFTISRDNAKNNLYLQMSHLRSEDTARYYCSVLRRGNAMDYWGQGTSVTVSS[human IgG1 constant region with changes not spelt out]GGSGGGGSGGGGSGGGGSGIPPHVQKSVNNDMIVTDNNGAVKFPQLCKFCDVRFSTCDNQKSCMSNCSITSICEKPQEVCVAVWRKNDENITLETVCHDPKLPYHDFILEDAASPKCIMKEKKKPGETFFMCSCSSDECNDNIIFSEEYNTSNPD
light 2: DIVMTQSPSSLTATARERVTMSCKSSQSLLNSGNQKNYLTWYQQKPGQPPKLLIYWASTRESGVPDRFTGSGSGTDFTLTVSSVQAEDLAVYYCQNAYFYPFTFGSGTKLEIKRTVAAPSVFIFPPSDEQLKSGTASVVCLLNNFYPREAKVQWKVDNALQSGNSQESVTEQDSKDSTYSLSSTLTLSKADYEKHKVYACEVTHQGLSSPVTKSFNRGEC
notes: also called constructed antibody CNT-F; trifunctional antibody
By EC50 (read off the curve) is commonly meant the concentration needed to bring the measured effect to its halfway point. Low readings indicate higher potency in that assay, high ones lower potency in that assay. Turning to B1, the “EC50 (read off the curve)” value was ~0.3 µg/mL.
